# In ChEMBL document CHEMBL4888484, “Replenishing the malaria drug discovery pipeline: Screening and hit evaluation of the MMV Hit Generation Library 1 (HGL1) against asexual blood stage Plasmodium falciparum ,using a nano luciferase reporter read-out” (2022):
# The whole screen tested about 150,000 compounds, of which about 540 (0.36%) showed an effect of 50% or more. This is one part of the list.
# System: Plasmodium falciparum
# Assay: Primary screen in NF54 nanoGlo assay, in single point, at 2uM, 72h; a lower Z score goes with more inhibition
# Assay type: functional, Erythrocyte
# Conditions: timepoint 72 hour
Structure (SMILES),% Inhibition [%],Z score
O=C(COc1ccc2nc3n(c(=O)c2c1)CCC3)Nc1ncc[nH]1,2,-0.33
CCCCn1nc(CC(N)=O)nc1CCc1ccc(C)cc1C,-10,1.56
O=C(Cn1ncccc1=O)N1Cc2ccccc2C1,8,-1.02
C[C@H]1Cc2ccccc2N1Cc1nc(-c2ccc(F)cc2)no1,-21,1.73
O=C(CN(Cc1ccno1)C[C@H]1CCCO1)N1CCCC1,-10,1.31
C[C@H]1NC(=O)N(c2cccc(C#N)c2)C1=O,-4,0.53
COC(=O)N1CC[C@H](Nc2ncc(Br)cn2)C1,0,0.04
Cc1ncc2n1C[C@@H](C(=O)N(CC1CC1)CC1CC1)CC2,0,-0.03
CCc1nc(C2(NS(=O)(=O)c3cc(C)oc3C)CCCC2)no1,-4,0.42
O=C(NCCn1cccn1)N1C2CCC1CC(CCF)C2 (stereo unspecified),-17,2.43
CCOC(=O)C1CCN(C(=O)[C@@H]2COC3(CCC(C)CC3)N2C(=O)c2cccc(C)c2)CC1 (stereo partly specified),1,-0.1
COc1ccc(C(=O)CN2CCN(C(=O)c3c(OC)cccc3OC)CC2)cc1,-15,2.75
C=CCNC(=O)N1CCC(O)(c2csc(CN(CC)CC)n2)CC1,30,-3.39
O=C(CCc1c[nH]c2ccccc12)N1CCC(c2c[nH]c3ccccc23)CC1,8,-1.59
CCC1C(=O)CC(c2ccco2)NC1c1ccco1 (stereo unspecified),35,-1.3
CCCc1cc(N2CCC[C@H](CN3CCCC3=O)C2)nc(C)n1,-11,1.5
CC(C)C[C@@H](CO)n1ccnc1-c1ccccc1Cl,-8,1.11
CC(C)C(=O)CNC(=O)[C@H](C)Oc1cccnc1,-11,1.09
Cn1ccnc1CC[C@H]1CCCCN1Cc1cc(C(C)(C)C)[nH]n1,-6,0.62
O=C(CN1CCN(c2ccccc2F)C1=O)N1CCN(c2ccccc2O)CC1,-7,0.86
OC[C@@]1(CCc2ccccc2)CCCN(c2ncccc2F)C1,0,-0.01
Cc1ccc(NC(=O)Nc2cc(C)ccc2N2CCCN(Cc3ccc(F)cc3)C2=O)cc1,37,-4.62

Structure (SMILES),% Inhibition [%],Z score
O=S(=O)(c1ccsc1)N1CC[C@H](c2nnc[nH]2)C1,-17,3.14
CN=C(NC)NCC1(C)Cc2ccccc2C1,-9,1.39
CCN=C(NCCOCC)NCc1cccc(OC)c1,-4,0.44
COC(=O)[C@H](Cc1ccc(OC)cc1)NC(=O)[C@H]1CN(C(=O)c2cccnc2)CCN1C(=O)NC1CCCCC1,6,-0.95
Cc1[nH]c(=O)c(C#N)c(C)c1CCC(=O)Nc1ccc(N2CCCCC2)cc1,-11,1.71
O=C(Nc1ccccc1)c1cccc(N2C(=O)C3CCCCC3C2=O)c1 (stereo unspecified),-2,0.24
COC1CN(c2ccc(NC(=O)NC3CCCC3)cc2)C1,-11,1.57
CCOC(=O)c1c(-c2ccccc2)n(C)c2cc(-c3cccnc3)c(O)cc12,9,-1.7
CCc1nc(-c2cc(S(=O)(=O)NCC(=O)N3CCOCC3)c(C)s2)no1,-8,0.8
O=C(CN1C[C@H]2CCS(=O)(=O)[C@H]2C1)NC1CCCC1,-11,1.39
CCc1nc(C)c(CC(=O)N[C@H]2CC[C@@H]3CCC[C@@H]32)c(=O)[nH]1,-13,1.37
COc1cccc(CNC(=O)c2oc3ccc4c(c3c2C)[C@@H](O)CC2(CCCCCC2)O4)c1,-3,0.43
CC(=O)Nc1ccc(N2C[C@@]34C=C[C@@H](O3)C(C(=O)NCc3ccncc3)C4C2=O)cc1 (stereo partly specified),-4,0.55
COc1ccc(CC(=O)N[C@H]2CCN(c3ncc[nH]c3=O)C2)c(C)c1,-10,1.64
Nc1cc(C(=O)N2C[C@H]3CC[C@@H](C2)N(CC2CCC2)C3=O)n[nH]1,-13,1.78
CCc1noc(CN(CCC(F)(F)F)CC(=O)OC)n1,-9,0.78
COc1cc(Br)ccc1N,32,-0.52
Cc1nc(C(=O)N2CCN(Cc3ccccc3)[C@@H]3CS(=O)(=O)C[C@@H]32)c(C)o1,-2,0.24
O=S(=O)(c1ccc(Cl)s1)N1CCC[C@H]1c1ccc2c(c1)OCCO2,-5,0.77
CCn1cc(CNC(=O)CCCn2cnnn2)c(C)n1,-6,1.05
C[C@H](Oc1ccc(-c2ccccc2)c(F)c1)c1cc[nH]n1,1,-0.07
